Experimental data as given in publication PMC6018503.
No constants are given. Whether binding was seen depends on the method and setting. For part of these data: Binding seen in cells or lysates may run through a third protein. Some entries that bind do so weakly or less than the wild type.

Chains of the proteins cited; added tags and fusions are not shown. Lines headed by an entry give the natural chain unless they say otherwise; changes in a name come on top.
UniProt Q93ZX1: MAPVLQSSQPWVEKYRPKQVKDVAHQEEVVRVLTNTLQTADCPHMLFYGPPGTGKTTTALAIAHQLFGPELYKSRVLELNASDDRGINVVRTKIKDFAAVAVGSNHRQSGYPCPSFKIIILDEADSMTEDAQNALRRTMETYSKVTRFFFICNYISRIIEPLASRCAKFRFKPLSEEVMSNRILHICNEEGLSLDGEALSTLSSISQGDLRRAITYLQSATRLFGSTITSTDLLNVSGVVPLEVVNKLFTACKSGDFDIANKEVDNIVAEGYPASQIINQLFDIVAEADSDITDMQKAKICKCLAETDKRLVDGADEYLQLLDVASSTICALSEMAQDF

B1: AtRFC5 (protein, UniProt Q8VXX4 1-354)
chain: MLWVDKYRPKSLDKVIVHEDIAQKLKKLVSEQDCPHLLFYGPSGSGKKTLIMALLKQIYGASAEKVKVENRAWKVDAGSRTIDLELTTLSSTNHVELTPSDAGFQDRYIVQEIIKEMAKNRPIDTKGKKGYKVLVLNEVDKLSREAQHSLRRTMEKYSSSCRLILCCNSSSKVTEAIKSRCLNVRINAPSQEEIVKVLEFVAKKESLQLPQGFAARIAEKSNRSLRRAILSLETCRVQNYPFTGNQVISPMDWEEYVAEIATDMMKEQSPKKLFQVRGKVYELLVNCIPPEVILKRLLHELLKKLDSELKLEVCHWAAYYEHRMRLGQKAIFHIEAFVAKFMSIYKNFLISTFG
B2: AtRFC1 Δ897-956 (domain or fragment, UniProt Q9C587 1-896)
chain: MSDIRKWFMKAHEKGNGSAPKSTSSKAGPVKNAAETAPIKSEQASEDLETADRRKTSKYFGKDKTKVKDEKEVEAIPAKRKLKTESDDLVKPRPRKVTKVVDDDDDDFDVPISRKTRDTTPSKKLKSGSGRGIASKTVDNDDDDDGEDKETPLKSAGRGRGGRAAPGASTGGRGRGGGRGGFMNFGERKDPPHKGEKEVPEGTPDCLAGLTFVISGTLDSLEREEAEDLIKRHGGRITGSVSKKTTYLLCDEDIGGRKSEKAKELGTKFLTEDGLFDIIRSSKPVKKSLPERSNKGTEKICAPPKTSPQKEETRGKPLAKSSPKKVPPAKGKNKIIETSLPWTEKYRPKVPNEIVGNQSLVTQLHNWLSHWHDQFGGTGSKGKGKKLNDAGSKKAVLLSGTPGIGKTTSAKLVSQMLGFQAVEVNASDSRGKANSNIAKGIGGSNANSVKELVNNEAMAANFDRSKHPKTVLIMDEVDGMSAGDRGGVADLIASIKISKIPIICICNDRYSQKLKSLVNYCLPLNYRKPTKQQMAKRLMHIAKAEGLEINEIALEELAERVNGDIRLAVNQLQYMSLSMSVIKYDDIRQRLLSSAKDEDISPFTAVDKLFGYNGGKLRMDERIDLSMSDPDLVPLLIQENYLNYRPSGKDEAKRMDLLARAAESIADGDIINVQIRRYRQWQLSQSCCVASSILPASLLHGSREVLEQGERNFNRFGGWLGKNSTAGKNRRLMEDLHVHVLASRESSAGRETLRVDYLPLLLSRLTSPLQTLPKDEAVSEVVDFMNSYSISQEDFDTILELGKFKGRENPMEGVPPPVKAALTKKYNEMNKTRMVRVADMVQLPGVKKAPKKRIAAMLEPTVDSLRDEDGEPLADNEEGNGSDAEEDSEEATDGEK

Tests used:
[1] = biological target: T1, AtRFC1 (Arabidopsis thaliana) (UniProt Q9C587); assay: split reporter; BiFC in tobacco leaf epidermal cells with truncated AtRFC proteins, pairs that include AtRFC1 or a truncated AtRFC1; whether the other small subunits were co-expressed is not said
T1 sequence: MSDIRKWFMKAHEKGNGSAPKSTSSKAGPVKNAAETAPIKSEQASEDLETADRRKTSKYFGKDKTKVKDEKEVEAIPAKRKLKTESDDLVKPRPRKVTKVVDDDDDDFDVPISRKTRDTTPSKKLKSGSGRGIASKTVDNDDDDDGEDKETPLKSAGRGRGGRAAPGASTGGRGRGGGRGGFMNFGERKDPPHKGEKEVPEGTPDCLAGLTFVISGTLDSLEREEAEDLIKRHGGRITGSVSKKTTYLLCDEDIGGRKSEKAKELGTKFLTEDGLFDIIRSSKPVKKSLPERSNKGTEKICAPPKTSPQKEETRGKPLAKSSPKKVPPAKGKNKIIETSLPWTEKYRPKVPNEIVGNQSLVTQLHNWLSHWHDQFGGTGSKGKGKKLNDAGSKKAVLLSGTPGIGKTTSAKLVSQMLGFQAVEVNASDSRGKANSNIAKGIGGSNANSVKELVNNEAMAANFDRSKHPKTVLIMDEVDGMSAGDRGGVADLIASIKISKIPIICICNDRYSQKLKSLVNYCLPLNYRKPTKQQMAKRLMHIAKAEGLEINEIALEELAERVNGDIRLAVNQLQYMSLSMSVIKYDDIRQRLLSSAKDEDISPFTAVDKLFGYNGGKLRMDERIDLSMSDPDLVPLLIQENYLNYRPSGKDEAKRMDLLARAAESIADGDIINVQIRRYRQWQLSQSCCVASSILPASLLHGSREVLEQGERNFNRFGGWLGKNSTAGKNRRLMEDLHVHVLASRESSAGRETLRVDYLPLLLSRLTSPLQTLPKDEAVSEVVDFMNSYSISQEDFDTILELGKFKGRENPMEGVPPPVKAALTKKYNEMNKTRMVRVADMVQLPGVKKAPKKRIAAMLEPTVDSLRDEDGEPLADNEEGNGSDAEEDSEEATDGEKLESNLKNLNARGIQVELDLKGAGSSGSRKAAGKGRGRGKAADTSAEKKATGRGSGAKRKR

[2] = biological target: T2, AtRFC2 (Arabidopsis thaliana) (UniProt Q9CAM7); assay: split reporter; BiFC; YFP^N (aa 1-155) and YFP^C (aa 156-239) fusions (pCAMBIA-SPYNE, pCAMBIA-SPYCE) co-expressed in tobacco (Nicotiana benthamiana) leaf epidermal cells through Agrobacterium GV3101; confocal microscopy of YFP; only the two named fusions
T2 sequence: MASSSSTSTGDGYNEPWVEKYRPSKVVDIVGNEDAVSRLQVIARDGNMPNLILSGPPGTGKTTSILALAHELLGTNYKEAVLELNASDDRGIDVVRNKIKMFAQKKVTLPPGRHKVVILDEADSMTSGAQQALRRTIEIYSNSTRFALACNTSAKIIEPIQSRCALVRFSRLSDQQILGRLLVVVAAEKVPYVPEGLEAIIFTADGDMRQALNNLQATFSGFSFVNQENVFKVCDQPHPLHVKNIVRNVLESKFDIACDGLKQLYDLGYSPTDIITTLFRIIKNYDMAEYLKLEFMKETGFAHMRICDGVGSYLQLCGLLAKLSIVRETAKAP

[3] = biological target: T3, AtRFC5 (Arabidopsis thaliana) (UniProt Q8VXX4); assay: as above
T3 sequence: B1 chain

[4] = biological target: AtRFC4 (Arabidopsis thaliana) (UniProt Q93ZX1); assay: two-hybrid; yeast two-hybrid; full-length ORFs in pGADT7 (AD) and pGBKT7 (BD); co-transformed strains spotted on SD-L-T and SD-L-T-H-A plates; empty AD or BD plasmids as negative controls
[5] = biological target: T2, AtRFC2 (Arabidopsis thaliana); assay: as above
[6] = biological target: AtRFC4 (Arabidopsis thaliana) (UniProt Q93ZX1); assay: split reporter; BiFC; YFP^N (aa 1-155) and YFP^C (aa 156-239) fusions (pCAMBIA-SPYNE, pCAMBIA-SPYCE) co-expressed in tobacco (Nicotiana benthamiana) leaf epidermal cells through Agrobacterium GV3101; confocal microscopy of YFP; only the two named fusions
[7] = biological target: AtRFC4 (Arabidopsis thaliana) (UniProt Q93ZX1); assay: split reporter; BiFC in tobacco leaf epidermal cells with truncated AtRFC proteins, pairs that include AtRFC1 or a truncated AtRFC1; whether the other small subunits were co-expressed is not said
[8] = biological target: T2, AtRFC2 (Arabidopsis thaliana); assay: as above
[9] = biological target: T3, AtRFC5 (Arabidopsis thaliana); assay: as above

Molecule	binding [1]	binding [2]	binding [3]	further results
AtRFC4 Δ320–339 (from UniProt Q93ZX1 1-319) (domain or fragment)	no binding	binds	binds	–
RFC4 Δ300–339 (from UniProt Q93ZX1 1-299) (domain or fragment)	no binding	no binding	no binding	–
B1	–	–	–	binding [4]: binds; binding [5]: no binding; binding [6]: binds
B2	–	–	–	binding [7]: no binding; binding [8]: no binding; binding [9]: no binding
